{"source": "the supplement of paper PMC8728848", "experiment_in_all_cases": "glycan array binding signal (z-score within array); higher = stronger binding", "conditions_in_all_cases": "glycan notation: IUPAC condensed, linker removed", "key": {"[1]": {"system": "Fuc(a1-2)[GalNAc(a1-3)]Gal(b1-4)GlcNAc(b1-2)Man(a1-3)[Fuc(a1-2)[GalNAc(a1-3)]Gal(b1-4)GlcNAc(b1-2)Man(a1-6)]Man(b1-4)GlcNAc(b1-4)[Fuc(a1-6)]GlcNAc", "method_in_brief": "(§1)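 Arrays were curated from the Consortium for Functional Glycomics database, 3228 in total, and kept only where the protein sequence was available. Binding is expressed as a within-array Z-score. This score was averaged across arrays of the same protein sequence at different concentrations or buffers and across linkers, and negative values can be read as non-binding.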"}, "[2]": {"system": "Fuc(a1-2)[GalNAc(a1-3)]Gal(b1-4)GlcNAc(b1-3)Gal(b1-4)GlcNAc", "method_in_brief": "as §1"}, "[3]": {"system": "Fuc(a1-2)[GalNAc(a1-3)]Gal(b1-4)GlcNAc(b1-3)Gal(b1-4)GlcNAc(b1-3)Gal(b1-4)GlcNAc", "method_in_brief": "as §1"}, "[4]": {"system": "Fuc(a1-2)[GalNAc(a1-3)]Gal(b1-4)GlcNAc(b1-3)[Fuc(a1-2)[GalNAc(a1-3)]Gal(b1-4)GlcNAc(b1-6)]GalNAc", "method_in_brief": "as §1"}, "[5]": {"system": "Fuc(a1-2)[GalNAc(a1-3)]Gal(b1-4)GlcNAc", "method_in_brief": "as §1"}, "[6]": {"system": "Fuc(a1-2)[GalNAc(a1-3)]Gal(b1-4)[Fuc(a1-3)]GlcNAc(b1-3)GalNAc", "method_in_brief": "as §1"}}, "note": "Only a selection was taken, and the strongest signals are over-represented in it overall."}
{"substance": "Thrombomodulin Extracellular (Homo sapiens) (chain not printed)", "values": [{"measurement": "glycan array binding signal (z-score)", "setting": "[1]", "result": 0.354}, {"measurement": "glycan array binding signal (z-score)", "setting": "[2]", "result": 0.284}]}
{"substance": "FGF2 (chain not printed)", "values": [{"measurement": "glycan array binding signal (z-score)", "setting": "[3]", "result": -0.741}]}
{"substance": "M-Ficolin A256V (Homo sapiens) (chain not printed)", "values": [{"measurement": "glycan array binding signal (z-score)", "setting": "[2]", "result": -0.177}]}
{"substance": "Meso764 (Homo sapiens) (chain not printed)", "values": [{"measurement": "glycan array binding signal (z-score)", "setting": "[4]", "result": -0.388}]}
{"substance": "VWF (Homo sapiens) (chain not printed)", "values": [{"measurement": "glycan array binding signal (z-score)", "setting": "[5]", "result": 5.5}]}
{"substance": "Galectin-8 C-terminal CRD (Homo sapiens) (chain not printed)", "values": [{"measurement": "glycan array binding signal (z-score)", "setting": "[5]", "result": 5.18}]}
{"substance": "NCAM1 (Homo sapiens) (chain not printed)", "values": [{"measurement": "glycan array binding signal (z-score)", "setting": "[6]", "result": 8.55}]}
